This is one part of the list. At the low end of the ranking the order means little. Measured with an extract: partners may take part in the binding.

The experiment addresses T1, HNF4alpha2 (COS-7 nuclear extract) (UniProt P41235).
T1 sequence: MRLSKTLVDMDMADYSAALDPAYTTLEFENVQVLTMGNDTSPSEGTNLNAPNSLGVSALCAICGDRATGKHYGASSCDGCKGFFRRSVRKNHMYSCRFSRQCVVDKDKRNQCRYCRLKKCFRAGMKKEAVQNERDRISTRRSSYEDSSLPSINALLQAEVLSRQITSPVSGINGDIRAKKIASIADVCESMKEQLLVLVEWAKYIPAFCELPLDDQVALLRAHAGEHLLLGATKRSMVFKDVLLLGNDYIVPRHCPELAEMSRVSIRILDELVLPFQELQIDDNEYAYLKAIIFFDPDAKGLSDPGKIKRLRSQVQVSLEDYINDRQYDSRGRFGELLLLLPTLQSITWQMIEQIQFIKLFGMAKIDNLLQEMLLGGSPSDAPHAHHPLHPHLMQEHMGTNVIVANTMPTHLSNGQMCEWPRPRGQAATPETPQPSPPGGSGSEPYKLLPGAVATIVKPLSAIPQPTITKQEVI
Description: protein-binding microarray. Conditions: COS-7 nuclear extract on double-stranded Agilent 4x180k PBM; binding buffer, salt, pH and temperature not given; high values mean tight binding; double strand, one strand shown; sequences stand for … in …GCCTAGGGAGATTAGAGTATCGGTCGA
Turning to AGGAGGAGACAGACTTATCGGGTAGGCAAG, the binding signal (log2 normalized intensity) is -0.985.
The value for CAAGGTCCAGGAGGTCGCTGGAAAGGCGGC was -0.494; that for CTGCTTTTGGAATTTGACCTCATTTGCTCC was 5.7; that for AGCTTTGATAGTCTGCTACCATCAGATAAG was -1.13.
With CTGAGCCAGCACTTCGACCTCACATTGTAG the figure was 1.68; with TCATTACTGACAGAGATCAAAAACCAAAGC, -1.13.
The value for CTTTAGCATATTACACCTGTAGCTTCCGAA was -1.08.
Consider TTTGCCTCATTCTTATTGCCTCATGTTTGC, for which the binding signal (log2 normalized intensity) was determined as 1.97.
The value for TGTCCGTTCCTGCCTGGAGCCACTGAAGTG was -1.14; that for TGCTCCCTGCCCCTACCCCCACCCTGTGTT was 5.67; that for CAAAGGGCATCAGCCCCAATGGCTAAGGTC was 1.47.
With TCCAGAGATGCCAGGAGAGCCGAAGCAGTC the figure was -0.989; with CCCAGGGAGAAAGGTCAGGGGCAGGGTCGC, 0.841.
The value for CACCAAAAATCACTTGGATAGCGCGTGGCC was -1.09; that for CAGAAAGTGACGTGCAGAGGAGCAACTCAT was -1.27.
AAATGCATTTCCTTATTCTTAACAAGCTGA: the binding signal (log2 normalized intensity) was -1.13.
The value for CTATTTCAGGAATGTGACCCCTTTCATGAA was 3.86.
With TCTTACCCAACCAAAAACAAAACTGGTCAT the figure was 1.68; with AAGGCTCTTTGTTCAGAGGGCATGTTGAGT, 1.52.
With CTTTGGAGTTTACTTTAGATGTGTTTGAGT the figure was 1.79; with GCAGGAGCCCAAGAAGCGTCAGTTGCCTCG, -1.18.
With TTTTATTTTCCCCCTTTGAAGTCTGCCCTC, the binding signal (log2 normalized intensity) was 4.45.
Take CCAGGGGACGTGGAATAGATCAGCTTTCAA: the binding signal (log2 normalized intensity) was -1.07.
With GCTCAAGTCTTTTAGAATGTGGATGGGCTG the figure was 1.35; with TTTCTGAGGAGCTAACAGTAAAACTGAGAT, -1.03.
With AAGAAACATTTTACAACCTATTCTCTCTGA the figure was -1.1; with TTTGACCTTAAGTCAGAAGAACTGATTCCA, 1.19.
With GCCTTGCAGGTTCTCAGAAACGCCTGGCGC the figure was -1.06; with TGAACCAATGCCACAGAAAAGGCAGCAGCT, -1.13; with AAGGAATGTAATGTATGCATAGACTGCCCA, 0.907.
On to CTCTGAAGTTTAATCCTCTCACCCAAGATC, for which the binding signal (log2 normalized intensity) was determined as 2.17.
The value for CCTTTCCCTTATCTTTGTTATCTGTTGGTT was 2.62; that for CCCCTGCAATACAGCCTTGTTTACAACGCT was -1.18.
The value for AGCGGGGCCTCTGTGTGGGGCTGATAAGGC was -1.05; that for GACTGCAGAGATTGGAATCTCTGCACAGCA was -1.14.
The value for GACTCTGAGCCTCCTCCCTCTCTCTCTTAA was -1.18; that for ATGAGTCTTGGGAATGAATCAGAATTTGGA was 1.14.
As to GCCTCGCCCTGCTTCGGCTCGCGCACGGTG, the binding signal (log2 normalized intensity) was -1.02.
With CTGAAGCATGCTATTTCAGGAATGTGACCC the figure was 4.23; with CTAAGTCTTTCCACACAGCCTGTCAAAGGG, 0.847.
With TCAGTCTGAGATAGTCATTCTTCTACAGTG the figure was 0.876; with TCACTGCTGGTGGGTGGGGGAAGTGTGGTC, 1.37.
With TGTAGGCCGTAACTGTCTCTGTTGCTCAAT the figure was 0.109; with GAGGGCGCTGTTGATGGGCAGCGCGGCGCG, -1.06; with CCCATTCTGTGCTGGCCCTGGGGGTGGGGG, -0.904.
Turning to GTGGGAGGGAGGCTTTTGCAGTCACTCTCT, the binding signal (log2 normalized intensity) is -1.16.
The value for AGGTCACAGCATTAGAGCAACCAGAATGTT was -1.13; that for GGGCCCCAGGGGACGTGGAATAGATCAGCT was -1.
With GGGGACTGCCTCTTCAGGAGGCACTGATAA the figure was -1.07; with CAGACTGGTGCTATGTCCCTGACTGTGTGG, 0.55.
With CCCAGGTCCTTTGGTCTGGCATTCAGCGCC, the binding signal (log2 normalized intensity) was -1.18.
With AGGAAAGGGCTTTGGGGACTGAAGACTTTG, the binding signal (log2 normalized intensity) was -1.18.
The value for CCAGGAGAGCCGAAGCAGTCAAATGACCCT was 3.7; that for CCTGAAGCTGCCCTTTGCACATGCCCCTCC was 4.57; that for GCTCATGCAGCTGCTGCCCAAAGGTCACCT was 4.93.
Regarding AGTTCATAGCAAAGTTTTTGTTCAATATGC, the binding signal (log2 normalized intensity) came out at 1.08.
With CACGTCTCAAGCTTCAGGAGTCCACTGTGT the figure was 1.89.
AAAGATCACACAAATGGATCTTTCTTCAAA: the binding signal (log2 normalized intensity) is -1.1.
With GCCCCAGTAAAACTGGAAAATCAAAGACTC the figure was -1.07; with AATCCTTAAGCAGCAGATAAGGCTAATCCT, -1.15; with TTGTATTTTGCCAAAGAGGTCTTATGCTCA, 0.386.
With TCACTTGTTTATCTGCTGCCCTTCCCTCCA the figure was 2.79; with TGCACTTTGACCGCTCATTTGATCCTCACA, 3.87.
With TTGACCTTTAGAAGGTTATTAGTGATAAGC the figure was 2.86.
For AAGGTCACAGCACTGTTTATTTTGTGTGAT, the binding signal (log2 normalized intensity) is 1.39.
The value for AAGTTGGAATTTGGGTGATCCTGGTAGCAG was 0.0957.
For AGGCTTGCAATGCGGAATGACATTCAGCAA, the binding signal (log2 normalized intensity) is -1.01.
With ACCCTGACCTGGCATATCTCTGTCCCTGAT the figure was 1.13; with TGGCTCTGAAAAACAAAATGCATTTCCTTA, -0.626; with AGTGCACATTCCAGAGAAATAGTGAGACAG, -1.17.
The value for GGGTAAAATGAGAATGAGACCTGCTAGGCT was -1.13; that for TCTGATCTTTGACTTCTAGTTCTTATCTCA was 0.35; that for CACCTGAGTCCAGAGGTCAAGGCTGCAGCG was 3.34.

The values are drawn from PMC10726135.
